{"source": "the supplement of paper PMC11417369", "note": "± gives the standard deviation of the averaged measurements. This is one part of the list.", "data": [{"tested_on": "PfAP2-LT AP2 domain (GST-tagged)", "experiment": "gcPBM binding intensity (ln(normalized median fluorescence intensity)); higher = stronger DNA binding", "procedure,_shortened": "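For binding intensity, the highest Masliner-normalised natural-log median intensity across replicate spots of either probe orientation was taken. Protein bound to the array was stained with Alexa488 anti-GST antibody and scanned at 488 nm. The protein, GST-tagged P. falciparum DNA-binding domains from E. coli at about 25 μg on average, had been applied for 1 h to an Agilent 4 × 180k array of primer-extended double-stranded 36-bp intergenic genomic probes and negative controls.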", "values": [{"sequence": "ATATATATGTTTTTATGTACATATTTTTCTCCTTCA [XGTACX_site5899]", "gcPBM binding intensity (ln)": "8.94 ± 0.44"}, {"sequence": "AATAAATTCATGAATTGTACGTAATGATAACATGAA [XGTACX_site2591]", "gcPBM binding intensity (ln)": "9.04 ± 0.39"}, {"sequence": "TTTTTATTCCAGTATTCACACACGAATAACCACATA [CACACA_site1897]", "gcPBM binding intensity (ln)": "9.05 ± 0.46"}, {"sequence": "ATTTTCTTTTTTAAACGTACACATATTAAATATATA [XGTACX_site7773]", "gcPBM binding intensity (ln)": "8.62 ± 0.49"}, {"sequence": "AGATGAGAGATATATACACACAATAATACCTATTTA [CACACA_site6542]", "gcPBM binding intensity (ln)": "9.12 ± 0.56"}, {"sequence": "TTTAAAAAGTTATGAAGTACATATATATATATATAT [XGTACX_site2188]", "gcPBM binding intensity (ln)": "9.42 ± 0.23"}, {"sequence": "ATATTATTTATAAAAGTGCAAAAATCACTTCTTTTA [GTGCAC_site9656]", "gcPBM binding intensity (ln)": "8.34 ± 0.54"}, {"sequence": "AAAAAAAGGAAATTTACACACACATATAATATACAT [CACACA_site3297]", "gcPBM binding intensity (ln)": "9.45 ± 0.27"}, {"sequence": "ATTTCCTTGAATGTTGCATGCTGTATTTTAATTAAA [TGCATGCA_site280]", "gcPBM binding intensity (ln)": "8.9 ± 0.4"}, {"sequence": "TAGATTATTATACTAGTGCAAATTATTTAAGAAAAA", "gcPBM binding intensity (ln)": "8.47 ± 0.52"}, {"sequence": "TAAATTTTTCTAAGTGCATGTTAATTTTTCAATTTA [TGCATGCA_site906]", "gcPBM binding intensity (ln)": "8.39 ± 0.45"}, {"sequence": "AAAAAAAAAAAGTGCACACATAAAAATATGATCTAA [CACACA_site572]", "gcPBM binding intensity (ln)": "9.07 ± 0.47"}, {"sequence": "AAAAAAAGGTAAAATTGTACATACGCACAAAAATAT [XGTACX_site2887]", "gcPBM binding intensity (ln)": "9 ± 0.51"}, {"sequence": "TGCACGCACAGACACACACACAACTAAAAAATAATG [CACACA_site7250]", "gcPBM binding intensity (ln)": "9.54 ± 0.49"}, {"sequence": "AATATATCAAAAATGATGACATAAATATATTAATTT [GTGCAC_negctrl_site530]", "gcPBM binding intensity (ln)": "8.72 ± 0.41"}, {"sequence": "TAATATCGTATATGAGTGCAATATTTTAGATTTTGA", "gcPBM binding intensity (ln)": "8.51 ± 0.42"}, {"sequence": "TTTTTTTTTTTTGTCACACACCTTCATAAGAAAAAA [CACACA_site4779]", "gcPBM binding intensity (ln)": "8.53 ± 0.38"}, {"sequence": "ATGAAAAAACATAATTGTACAAAAGTTGGATTCGAT [XGTACX_site7732]", "gcPBM binding intensity (ln)": "9.39 ± 0.5"}, {"sequence": "TAAATCCGCAGGCACACACACATATTAAGAAAAAAA [CACACA_site6061]", "gcPBM binding intensity (ln)": "9.42 ± 0.51"}, {"sequence": "GTACAGATATTGTACATACACACCTATATAAATATC [CACACA_site5739]", "gcPBM binding intensity (ln)": "9.17 ± 0.3"}, {"sequence": "ATCATCACATAAGAAAATAGATAAAAAAAAAAAAAT [XGTACX_negctrl_site589]", "gcPBM binding intensity (ln)": "8.74 ± 0.59"}, {"sequence": "ATTAAATGATTCATATGTACATAAATAAATAAATAT [XGTACX_site2249]", "gcPBM binding intensity (ln)": "8.86 ± 0.35"}, {"sequence": "TATTAATATTTACACACATGCGCACACATAAATAAA [TGCATGCA_site609]", "gcPBM binding intensity (ln)": "9.48 ± 0.29"}, {"sequence": "TTTCTTTTTAAAGTGTATTAAAATTGAATAAAAAGA [XGTACX_negctrl_site408]", "gcPBM binding intensity (ln)": "8.05 ± 0.42"}, {"sequence": "AAAGAGAAACAAAATTGTACATTATATTGTAGACGT [XGTACX_site976]", "gcPBM binding intensity (ln)": "9.03 ± 0.35"}, {"sequence": "TATATTTATAAGTGTACACATTATATAAATCCCTAT [CACACA_site6122]", "gcPBM binding intensity (ln)": "8.65 ± 0.42"}, {"sequence": "TGGGAACAATATATTTGTACTTAAATAAATAAAAAA [XGTACX_site6762]", "gcPBM binding intensity (ln)": "8.43 ± 0.64"}, {"sequence": "GAACAAAATGATAGAAGTACAAATATTTATTTTGTT [XGTACX_site7146]", "gcPBM binding intensity (ln)": "8.8 ± 0.58"}, {"sequence": "TAAGAAAAATATATATGTACACATATATATATATAT [XGTACX_site8542]", "gcPBM binding intensity (ln)": "9.49 ± 0.028"}, {"sequence": "TGTATGTTATATACAACACACAAAAAAAAACAAGTT [CACACA_site301]", "gcPBM binding intensity (ln)": "9.12 ± 0.51"}, {"sequence": "AACTTTTATACGGATACACACAAAAAAAAATAAAAA [CACACA_site6547]", "gcPBM binding intensity (ln)": "8.89 ± 0.51"}, {"sequence": "TACAATATTTCGAGCTTGCACTTTTATTAAGTAAAT", "gcPBM binding intensity (ln)": "8.54 ± 0.38"}, {"sequence": "TATCTGTATTTGTATACACACAAATGTATTTATTTA [CACACA_site4830]", "gcPBM binding intensity (ln)": "8.94 ± 0.44"}, {"sequence": "TATACAGACAGACACACACACATATATAAATATGTA [CACACA_site6912]", "gcPBM binding intensity (ln)": "9.76 ± 0.37"}, {"sequence": "ATTATTATTTTTAACTGTACATAGATATAGATATCC [XGTACX_site8714]", "gcPBM binding intensity (ln)": "8.62 ± 0.45"}, {"sequence": "TACATATATCTATGTGTGCACTTATTTCCGGACAAA", "gcPBM binding intensity (ln)": "9.23 ± 0.4"}, {"sequence": "TAATTAGCATAATACACATGCATACATTTATATATA [TGCATGCA_site542]", "gcPBM binding intensity (ln)": "8.69 ± 0.42"}, {"sequence": "AGTCTTTTACATTGCACACACATTTCTTTCCTTTTG [CACACA_site2988]", "gcPBM binding intensity (ln)": "9.61 ± 0.36"}, {"sequence": "AAAAAAAAAAAACATACACACAAGAACAAAATATGA [CACACA_site3002]", "gcPBM binding intensity (ln)": "9.19 ± 0.41"}, {"sequence": "ATGTGTATACTAAGAACACACAAGTTACTTGGTGTT [CACACA_site6864]", "gcPBM binding intensity (ln)": "9.07 ± 0.33"}, {"sequence": "TATTTAAAAGATGAAAGTACACATTTAATTACATTT [XGTACX_site3781]", "gcPBM binding intensity (ln)": "8.46 ± 0.35"}, {"sequence": "TATATTTAACATACTTTTTTTTTTTTTTTTTTTTTT [CACACA_negctrl_site938]", "gcPBM binding intensity (ln)": "8.6 ± 0.3"}, {"sequence": "ATATATATATATATATGTACTTAATATTTCTTATTT [XGTACX_site6206]", "gcPBM binding intensity (ln)": "9.55 ± 0.099"}, {"sequence": "ATTTTTAATATTATTACACACACTAATAAAAAAAAA [CACACA_site8265]", "gcPBM binding intensity (ln)": "8.73 ± 0.35"}, {"sequence": "TTTTTTTTAATTGTGATACGTATATTATTTTTTGAT [TGCATGCA_negctrl_site318]", "gcPBM binding intensity (ln)": "8.68 ± 0.49"}]}]}
